Measured values taken from the supplement of paper PMC9446081.
In all, about 39,000 compounds went through this assay and about 220 (0.56%) showed activity. The list shows a part of the results.

Tested on: Escherichia coli K-12 BW25113
Assay: relative growth (OD600 normalised to plate interquartile mean) (fraction); higher = less growth inhibition, active = 0.2 or less
Details: 50 µM; LB; incubation time: overnight (16-24 h)
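Further: static incubation at 37 °C against the wild-type strain, values averaged over two biological replicates.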

SMILES | relative growth
Cc1ccc(S(=O)(=O)Nc2ccc3c(c2)C(=O)N([C@@H](C)CO)C[C@H](C)[C@H](CN(C)C(=O)Nc2ccc(C(F)(F)F)cc2)O3)cc1 | inactive: 1.01
C[C@H](CO)N1C[C@H](C)[C@@H](CN(C)C(=O)C2CCCCC2)OCCCC[C@H](C)Oc2ccc(NC(=O)NC3CCCCC3)cc2C1=O | inactive: 1.01
C[C@H](CO)N1C[C@H](C)[C@@H](CN(C)C)Oc2ccc(NS(=O)(=O)c3cn(C)cn3)cc2CC1=O | inactive: 0.993
CCOC(=O)N(C)C[C@@H]1OCc2cnnn2CCCC(=O)N([C@H](C)CO)C[C@H]1C | inactive: 1.01
C[C@@H]1CCCCO[C@H](CN(C)Cc2ccc(C(=O)O)cc2)[C@H](C)CN([C@H](C)CO)C(=O)c2cc(NS(=O)(=O)c3cccs3)ccc2O1 | inactive: 0.995
C[C@@H]1CN([C@@H](C)CO)C(=O)c2cc(NC(=O)NC3CCCCC3)ccc2O[C@@H](C)CCCCO[C@H]1CN(C)C(=O)NC1CCCCC1 | inactive: 0.991
COc1ccc(NC(=O)Nc2ccc3c(c2)C(=O)N([C@H](C)CO)C[C@@H](C)[C@@H](CN(C)C(=O)NC2CCCCC2)OCCCC[C@H](C)O3)cc1 | inactive: 1.03
Cn1cnc(S(=O)(=O)N2C[C@@H](O)COC[C@@H]3O[C@H](CC(=O)N4CCN(c5ccccc5)CC4)CC[C@H]32)c1 | inactive: 1.01
COc1ccc(S(=O)(=O)Nc2ccc3c(c2)CC(=O)N([C@@H](C)CO)C[C@H](C)[C@H](CN(C)Cc2ccc(-c4ccccc4)cc2)O3)cc1 | inactive: 1.01
COc1ccc(F)c(C(=O)N2CCN(CCO)[C@@H]3CS(=O)(=O)C[C@@H]32)c1F | inactive: 0.98
Nc1ccc2oc3c(c2c1)CCCC3 | inactive: 0.986
COC1=C(OC)C(=O)C(C/C=C(\C)CC/C=C(\C)CC/C=C(\C)CC/C=C(/C)CC/C=C(\C)CC/C=C(\C)CC/C=C(\C)CC/C=C(\C)CC/C=C(\C)CCC=C(C)C)=C(C)C1=O | inactive: 1
COc1ccc([Si](C)(C)[C@@H]2[C@@H](CCn3cc([C@H](O)c4ccccc4)nn3)O[C@]3(C(=O)N(Cc4cccc(N5CCC5=O)c4)c4ccccc43)[C@H]2C)cc1 | inactive: 0.92
C[C@@H]1CCCCO[C@@H](CN(C)Cc2ccc(Cl)c(Cl)c2)[C@@H](C)CN([C@@H](C)CO)C(=O)c2cc(NC(=O)Cc3ccccc3)ccc2O1 | inactive: 1.02
Brc1cccc2ocnc12 | inactive: 1.01
C[C@@H]1CN([C@@H](C)CO)C(=O)c2cc(NC(=O)Nc3ccc4c(c3)OCO4)ccc2O[C@@H]1CN(C)Cc1ccc(Oc2ccccc2)cc1 | inactive: 1.01
C[C@@H]1CN([C@H](C)CO)C(=O)c2cc(NC(=O)Cc3ccccc3)ccc2O[C@@H](C)CCCCO[C@H]1CN(C)S(=O)(=O)c1ccc(Cl)cc1 | inactive: 1.04
COc1cccc(S(=O)(=O)N2C[C@H](O)COC[C@H]3O[C@@H](CC(=O)N4CCOCC4)CC[C@@H]32)c1 | inactive: 0.989
COc1ccc(S(=O)(=O)N(C)C[C@H]2Oc3ccc(NS(C)(=O)=O)cc3CC(=O)N([C@@H](C)CO)C[C@H]2C)cc1 | inactive: 0.957
C[C@H](CO)N1C[C@H](C)[C@H](CN(C)CC2CCCCC2)Oc2c(NC(=O)c3ccc(-c4nccs4)cc3)cccc2C1=O | inactive: 0.999

SMILES | relative growth
Cc1ccc(S(=O)(=O)Nc2ccc3c(c2)C(=O)N([C@@H](C)CO)C[C@@H](C)[C@H](CN(C)Cc2ccc4c(c2)OCO4)OCCCC[C@H](C)O3)cc1 | inactive: 1
C[C@@H]1CCCCO[C@@H](CN(C)Cc2ccc(C(F)(F)F)cc2)[C@@H](C)CN([C@@H](C)CO)C(=O)c2cc(NC(=O)C3CCCCC3)ccc2O1 | inactive: 1.01
O=C(CCCCCNC(=O)OCc1ccc(CO[C@@H]2C[C@H](C3CCCCC3)C=C(C(=O)N3CCCCCCC3)O2)cc1)NO | inactive: 0.995
C[C@@H]1CCCCO[C@@H](CN(C)Cc2ccc(C(F)(F)F)cc2)[C@H](C)CN([C@@H](C)CO)C(=O)c2cc(NC(=O)CCC(F)(F)F)ccc2O1 | inactive: 1.03
CC1(C)[C@@H](OC(=O)CCC(=O)O)CC[C@@]2(C)[C@H]1CC[C@]1(C)[C@H]2C(=O)C=C2[C@@H]3C[C@@](C)(C(=O)O)CC[C@]3(C)CC[C@]21C | inactive: 0.973
COc1ccc(CN(C)C[C@H]2OCCCC[C@@H](C)Oc3ccc(NS(=O)(=O)c4c(C)noc4C)cc3C(=O)N([C@@H](C)CO)C[C@H]2C)cc1 | inactive: 1.01
C[C@H]1CN([C@@H](C)CO)C(=O)c2cc(NC(=O)CCCCCC(=O)Nc3ccccc3N)ccc2O[C@H]1CN(C)S(=O)(=O)c1cn(C)cn1 | inactive: 1.01
COc1ccc([Si](C)(C)[C@@H]2[C@@H](CCn3cc([C@H](O)c4ccccc4)nn3)O[C@]3(C(=O)N(Cc4cccc(N5C(=O)c6cccc7cccc5c67)c4)c4ccccc43)[C@H]2C)cc1 | inactive: 1.04
COCC(=O)N1C[C@@H](C)[C@H](OC)CN(C)C(=O)c2ccc(NC(=O)c3cc(C)on3)cc2OC[C@@H]1C | inactive: 0.983
COc1ccc(S(=O)(=O)N(C)C[C@H]2OCc3cn(nn3)CCCC(=O)N([C@@H](C)CO)C[C@H]2C)cc1 | inactive: 1
Cn1cnc(S(=O)(=O)N2C[C@H](O)COC[C@@H]3O[C@H](CC(=O)NCc4cc(F)cc(F)c4)CC[C@H]32)c1 | inactive: 0.996
O=C(C[C@H]1CC[C@H]2[C@@H](COC[C@@H](O)CN2S(=O)(=O)c2ccccc2)O1)NCc1ccc(-c2ccccc2)cc1 | inactive: 0.994
O=C(Cc1ccccc1)NCCN1CCOCC1 | inactive: 0.996
CCC(=O)N(C)C[C@@H]1Oc2ncc(C#C[C@H](C)O)cc2C(=O)N([C@H](C)CO)C[C@H]1C | inactive: 0.997
C[C@H]1CN([C@@H](C)CO)S(=O)(=O)c2ccc(Br)cc2O[C@@H]1CN(C)S(=O)(=O)c1ccccc1F | inactive: 0.995
C[C@@H]1CN([C@H](C)CO)C(=O)Cc2cc(NS(=O)(=O)c3cn(C)cn3)ccc2O[C@@H]1CN(C)S(=O)(=O)c1ccc(Cl)cc1 | inactive: 0.952
C[C@@H]1CN([C@@H](C)CO)C(=O)c2cc(NS(=O)(=O)c3ccc(Cl)cc3)ccc2O[C@@H](C)CCCCO[C@H]1CN(C)Cc1ccccc1 | inactive: 1.02
O=C(CSc1nnc(-c2ccccc2)n1C1CCCCC1)Nc1ccc(S(=O)(=O)Nc2ccccn2)cc1 | inactive: 0.98
C[C@H]1CCCCO[C@@H](CN(C)C(=O)NC2CCCCC2)[C@@H](C)CN([C@@H](C)CO)C(=O)c2cc(NC(=O)Nc3ccc(F)cc3)ccc2O1 | inactive: 1.01
Cc1ccoc1C(=O)NCCN | inactive: 0.961

SMILES | relative growth
Nc1ccc(S(N)(=O)=O)cn1 | inactive: 0.957
NCC[C@H]1CC[C@H](NC(=O)C2CCCC2)[C@@H](CO)O1 | inactive: 0.987
C[C@H](CO)N1C[C@H](C)[C@H](CN(C)C(=O)Nc2ccc3c(c2)OCO3)OCc2cnnn2CCCC1=O | inactive: 1
CCOCCOc1ccccc1C(N)=O | inactive: 1.16
Cc1ccc(S(=O)(=O)N(C)C[C@H]2OCCCC[C@H](C)Oc3ccc(NC(=O)Nc4ccc(C(F)(F)F)cc4)cc3C(=O)N([C@@H](C)CO)C[C@H]2C)cc1 | inactive: 1.05
C[C@H]1CN([C@@H](C)CO)C(=O)c2cc(NS(=O)(=O)c3ccccc3)ccc2O[C@H]1CN(C)S(C)(=O)=O | inactive: 0.995
C[C@H]1CN([C@@H](C)CO)S(=O)(=O)c2ccc(-c3cncnc3)cc2O[C@H]1CN(C)C(=O)CN(C)C | inactive: 1
C[C@@H]1CCCCO[C@@H](CN(C)C(=O)Nc2ccc3c(c2)OCO3)[C@@H](C)CN([C@@H](C)CO)C(=O)c2cc(NC(=O)C3CCCCC3)ccc2O1 | inactive: 1.03
Cn1cncc1[C@@](N)(c1ccc(Cl)cc1)c1ccc2c(c1)c(-c1cccc(Cl)c1)cc(=O)n2C | inactive: 0.927
C[C@@H]1CCCCO[C@@H](CN(C)Cc2ccc3c(c2)OCO3)[C@H](C)CN([C@H](C)CO)C(=O)c2cc(NC(=O)CCC(F)(F)F)ccc2O1 | inactive: 1
CC(C)NC(=O)Nc1ccc2c(c1)C(=O)N([C@H](C)CO)C[C@@H](C)[C@@H](CN(C)C(=O)Nc1ccccc1)OCCCC[C@@H](C)O2 | inactive: 0.995
Cc1ccc(S(=O)(=O)N2C[C@@H](O)COC[C@H]3O[C@@H](CC(=O)NCc4ccc(Cl)c(Cl)c4)CC[C@@H]32)cc1 | inactive: 1.02
C[C@@H]1CN([C@@H](C)CO)C(=O)c2cc(NC(=O)Nc3ccc(F)cc3)ccc2O[C@@H](C)CCCCO[C@H]1CN(C)C(=O)Nc1cccc2ccccc12 | inactive: 1.03
O=C(C[C@H]1C[C@H]2c3cc(NC(=O)c4ccc5c(c4)OCO5)ccc3O[C@H]2[C@H](CO)O1)NCC(F)(F)F | inactive: 1
O=C(O)Cn1c(=O)n(CC(=O)O)c2ccccc21 | inactive: 1
O=C(C[C@H]1CC[C@H]2[C@@H](COC[C@@H](O)CN2C(=O)Nc2ccc(Cl)cc2)O1)NC1Cc2ccccc2C1 | inactive: 0.972
C[C@@H]1CCCCO[C@H](CN(C)C(=O)C2CCCCC2)[C@@H](C)CN([C@H](C)CO)C(=O)c2cc(NS(=O)(=O)c3ccccc3)ccc2O1 | inactive: 1.03
COCC(=O)N1CC(=O)N2[C@H](CO)[C@H](c3ccc(C#Cc4cccnc4)cc3)[C@@H]2C1 | inactive: 0.958
C[C@@H]1CCCCO[C@H](CN(C)S(C)(=O)=O)[C@H](C)CN([C@@H](C)CO)C(=O)c2cc(NC(=O)c3ccncc3)ccc2O1 | inactive: 0.996
